Measurements taken from publication PMC4336329 (PLoS ONE, 2015).
The whole screen tested about 310,000 compounds, of which about 14,000 (4.5%) showed an effect of 50% or more. The effect is printed as a negative number. This is one part of the list.

Target: human ether-à-go-go-related gene (hERG) potassium channel (human, UniProt Q12809)
Experiment: primary screen, population patch clamp on CHO cells stably expressing hERG
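Further: peak tail current of the secondary pulse compared with the same well before compound.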

Chain of human ether-à-go-go-related gene (hERG) potassium channel (Q12809 whole entry, looked up): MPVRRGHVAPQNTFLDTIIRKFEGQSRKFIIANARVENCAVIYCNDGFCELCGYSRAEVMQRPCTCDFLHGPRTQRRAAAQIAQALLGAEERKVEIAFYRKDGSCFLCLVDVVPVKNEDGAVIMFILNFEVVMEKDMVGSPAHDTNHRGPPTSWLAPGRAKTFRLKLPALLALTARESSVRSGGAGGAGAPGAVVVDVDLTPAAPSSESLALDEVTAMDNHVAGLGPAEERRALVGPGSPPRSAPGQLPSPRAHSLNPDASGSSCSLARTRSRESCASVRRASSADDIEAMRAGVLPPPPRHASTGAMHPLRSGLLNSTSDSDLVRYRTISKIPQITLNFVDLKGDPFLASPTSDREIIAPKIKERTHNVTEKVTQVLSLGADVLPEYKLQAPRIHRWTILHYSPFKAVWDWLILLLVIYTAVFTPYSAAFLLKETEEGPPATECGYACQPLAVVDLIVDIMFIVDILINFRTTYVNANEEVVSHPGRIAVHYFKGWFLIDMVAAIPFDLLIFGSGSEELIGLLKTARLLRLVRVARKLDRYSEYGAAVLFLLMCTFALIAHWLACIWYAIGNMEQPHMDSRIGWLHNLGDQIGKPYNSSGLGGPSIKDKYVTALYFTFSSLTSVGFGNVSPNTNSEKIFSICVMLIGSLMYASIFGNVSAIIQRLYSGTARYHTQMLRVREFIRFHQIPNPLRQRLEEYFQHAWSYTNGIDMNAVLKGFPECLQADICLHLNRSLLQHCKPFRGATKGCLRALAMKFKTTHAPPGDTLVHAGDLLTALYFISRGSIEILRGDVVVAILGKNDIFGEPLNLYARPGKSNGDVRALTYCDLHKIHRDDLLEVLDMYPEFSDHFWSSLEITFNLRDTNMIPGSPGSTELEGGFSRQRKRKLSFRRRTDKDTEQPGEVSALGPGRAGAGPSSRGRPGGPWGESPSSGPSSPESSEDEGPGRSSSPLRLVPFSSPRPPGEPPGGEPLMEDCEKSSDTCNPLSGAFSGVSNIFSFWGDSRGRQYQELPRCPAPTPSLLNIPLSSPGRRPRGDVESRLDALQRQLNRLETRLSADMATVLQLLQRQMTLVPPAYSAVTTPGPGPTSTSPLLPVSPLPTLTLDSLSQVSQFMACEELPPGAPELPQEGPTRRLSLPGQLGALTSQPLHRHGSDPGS

| Compound | hERG current change (%, negative = inhibition) at 10uM |
| --- | --- |
| Cc1cc(C)cc(N(CCC#N)C(=O)CSc2ncnc3sccc23)c1 | -41% |
| CCC(=O)OCc1cc(=O)oc2ccc3ccccc3c12 | 22.3% |
| O=C(OC1CCOC1=O)c1cc(S(=O)(=O)N2CCOCC2)c(Cl)cc1Cl (stereo not shown) | -3.05% |
| CCN(CC)C(=O)c1cccc(NC(=O)c2ccc3c(=O)n4c(nc3c2)CCC4)c1 | -10.7% |
| CCOC(=O)c1cc(-c2ccccc2)n(CC(=O)N2CCCC2)c1C | 6.12% |
| Cc1ccc(C)n1-c1nnc(N2CCC(C(=O)N3CCN(C)CC3)CC2)s1 | 7.34% |
| CNc1c(N)n(Cc2ccccc2)c(=O)[nH]c1=O | 10.4% |
| O=C(/C=C/c1ccccc1)NCCS(=O)(=O)N1CCN(c2ccccc2F)CC1 | -3.41% |
| Cc1nn(-c2ccccc2)c(C)c1/C=C/C(=O)OCC(=O)Nc1ccc(C(N)=O)cc1 | 17.3% |
| C=CCn1c(CC#N)nnc1N1CCOCC1.Cl | 1.13% |
| O=C(Nc1ccc(Br)cc1F)C1CCCN(S(=O)(=O)c2cnc[nH]2)C1 (stereo not shown) | -2.49% |
| COc1ccc(N=c2oc3cc(O)ccc3cc2C(=O)NCC2CCCO2)c(OC)c1 (stereo not shown) | 3.71% |
| CN(C)S(=O)(=O)c1ccc(N2CCCC2)c(C(=O)Nc2nc(-c3ccc(F)c(F)c3)cs2)c1 | 14.4% |
| COc1ccc2c3c([nH]c2c1)C(C)N(CCC(=O)NN)CC3 (stereo not shown) | 6.86% |
| O=c1oc2cc(OCc3nn[nH]n3)ccc2c2c1CCCC2 | 11.5% |
| CCN(CC)S(=O)(=O)c1ccc(NC(=O)c2cnccn2)cc1 | 7.95% |
| COc1ccc(C2CC23N=C(c2ccccc2)OC3=O)cc1 (stereo not shown) | -13.2% |
| Cc1ccc(-c2ccc([C@H]3[C@H]4C=CC[C@@H](C)[C@@H]4C(=O)N3Cc3ccccc3)c(F)c2)cc1 | 2.24% |
| O=C(CCn1c(=S)oc2ccccc21)Nc1cc([N+](=O)[O-])ccc1F | 13.5% |
| CCCC(=O)NNC(=O)c1c(O)c2ccccc2[nH]c1=O | 13.3% |
| O=C(COC(=O)c1ccc(S(=O)(=O)Nc2ccccc2)cc1)NCc1ccco1 | -2.1% |
| O=C(CCCSc1nc2ccccc2[nH]1)N1CCN(c2ccc([N+](=O)[O-])cc2)CC1 | -79.9% |

| Compound | hERG current change (%, negative = inhibition) at 10uM |
| --- | --- |
| COc1ccc2nc(SCC(=O)NC(C)(C)C)[nH]c2c1 | 8.03% |
| O=S(=O)(/C=C/c1ccccc1)NCCc1ccccn1 | 10.7% |
| CCc1ccc(S(=O)(=O)/N=C2/C=C(Sc3ncn[nH]3)C(=O)c3ccccc32)cc1 | 25% |
| CC1CCN(C(=O)c2ccc3c(c2NCCO)C(=O)c2ccccc2C3=O)CC1 | -3.74% |
| O=C1CCN(CCc2ccccc2)CCN1[C@H](CSc1ccccc1)c1ccccc1 | -78.7% |
| NC(=O)C1=C[C@@H](c2ccccc2)C[C@@H](OCc2ccc(CO)cc2)O1 | 2.7% |
| O=S1(=O)[C@H]2C[C@@H]3C=C[C@]2(CN1Cc1ccc(C(F)(F)F)cc1)O3 | -2.24% |
| c1ccc(CCc2nn3c(Cc4ccccc4)nnc3s2)cc1 | -36.1% |
| Cc1sc(-n2c(C)cc(/C=N/n3cnnc3)c2C)c(C#N)c1C | -12.9% |
| Cn1c(SCC(=O)c2ccc3c(c2)Cc2ccccc2-3)nnc1-c1cccc(N)c1 | 5.24% |
| COc1ccc(S(=O)(=O)N2CCCC2C(=O)Nc2nc3c(s2)CCCC3)cc1 (stereo not shown) | -14% |
| Cc1ccc(C(=O)Nc2cccc(C(=O)O)c2)cc1S(=O)(=O)N1CCOCC1 | 7.7% |
| CC1(C)Cc2nc3sc4c(NCCO)ncnc4c3cc2CS1 | 4.05% |
| O=C(NCC1CCOCC1)C1CCC(=O)N(Cc2cccc(C(F)(F)F)c2)C1 (stereo not shown) | 16% |
| Cn1c(SCC(=O)N/N=C/c2ccc(O)c(O)c2)nc2ccccc21 | 4.68% |
| COC(=O)c1ccc(NC(=O)C2CC2)o1 | 11.7% |
| COc1ccc(OCCCC(=O)Nc2cccc(SC)c2)cc1 | 14.4% |
| COCCCn1c(=N)c(C(=O)NC2CCCCC2)cc2c(=O)n3ccccc3nc21 | -78.8% |
| CC(=O)c1cccc(OCC(=O)N2CCN(CC(=O)Nc3cccc(F)c3)CC2)c1 | -42.2% |
| O=c1oc2cc(O)ccc2cc1S(=O)(=O)c1ccccc1 | 11.6% |
| CCOC(=O)CN1C(=O)N[C@@H](c2ccccc2)[C@@H](C(=O)OC)[C@H]1C | -0.0326% |
| COC(=O)c1ccc(Cl)c(NC(=O)CSc2ncn[nH]2)c1 | 6.05% |

| Compound | hERG current change (%, negative = inhibition) at 10uM |
| --- | --- |
| COc1ccccc1CNC(=O)c1ccc(CS(=O)(=O)c2ccccc2OC)o1 | -33.2% |
| COc1ccc(NC(=O)COc2ccc(N(C)S(=O)(=O)c3ccc(C)cc3)cc2)cc1 | 0.0425% |
| O=C(Cc1ccccc1[N+](=O)[O-])Nc1ccc2c(c1)OCCO2 | 8.58% |
| O=C(CNC(=O)C12CC3CC(CC(C3)C1)C2)N/N=C\c1ccccn1 | -12.9% |
| CCCc1cc(=O)[nH]c(SCC(=O)N2CCN(S(=O)(=O)c3ccc4ccccc4c3)CC2)n1 | 11% |
| CCOc1cc(C(=O)NCc2ccc(F)cc2)ccc1OCC(=O)N1CCCCC1 | -37.5% |
| Cn1c(SCC(=O)NNC(=O)Cc2ccccc2)nc2ccccc2c1=O | 11.7% |
| C=CCN(CC=C)S(=O)(=O)c1ccc(F)cc1 | -3.7% |
| Cc1cc(C)c2nc(SCC(=O)NC(=O)c3cccn3C)cc(C)c2c1 | -2.66% |
| COC(C[C@H]1O[C@@H]1C(=O)[C@H](C)OCc1ccccc1)OC | 25.7% |
| COC(=O)Cn1c(=O)c2c(nc3n2CCCN3Cc2ccccc2)n(C)c1=O | -8.37% |
| CCOC(=O)C1=C(CS(=O)(=O)c2ccc(F)cc2)NC(=O)NC1c1ccc(O)c(O)c1 (stereo not shown) | 15.5% |
| CC(=O)c1ccc(NC(=O)Nc2cccc3ccccc23)cc1 | 18.1% |
| Cc1csc(SCC(=O)NC2CCCC2)n1 | 19.7% |
| COc1ccc(S(=O)(=O)NC2CCCC2)cc1NC(C)=O | 5% |
| O=C(CCNS(=O)(=O)c1ccccc1)NNC(=O)c1csc(N2CCOCC2)n1 | 21.1% |
| O=C(COC(=O)/C=C/c1cccc(F)c1)NNC(=O)c1ccccc1 | 11.7% |
| Cc1ccc(NC(=O)CSc2nnnn2-c2ccc3c(c2)OCO3)cc1C | 7.17% |
| COc1ccc(C2=C(O)C(C)N(c3ccccc3)C2=N)cc1OC (stereo not shown) | 7.02% |
| COc1ccccc1OCC(=O)Nc1nc2c(s1)CCCC2 | -9.31% |
| COc1ccc(NC(C)=O)cc1NC(C)c1nc2sc(C)c(C)c2c(=O)[nH]1 (stereo not shown) | 24.5% |
| COc1ccc(CCNCc2c(OC)ccc3ccccc23)cc1OC.Cl | -44.6% |

| Compound | hERG current change (%, negative = inhibition) at 10uM |
| --- | --- |
| O=C(O)CCC(=O)Nc1ccc(S(=O)(=O)N2CCCC2)cc1 | 17.2% |
| C/C(=C/C(=O)NCc1ccccc1)C(=O)O | -2.69% |
| Cc1ccc(-c2nnc(SCC(=O)OC(C)C)n2N)cc1 | 7.03% |
| CC1CCCC(NC(=O)COC(=O)c2ccc3ncsc3c2)C1C (stereo not shown) | -3.48% |
| CCC(=O)N(Cc1ccc(S(N)(=O)=O)cc1)C1CC(=O)N(c2ccccc2)C1=O (stereo not shown) | 35.7% |
| CCCS(=O)(=O)c1nc(S(=O)(=O)c2ccc(C)cc2)c(N2CCN(C)CC2)s1 | -0.314% |
| COc1ccc(CNC(=O)COC(=O)c2ccc3ncsc3c2)cc1OC | 14.5% |
| CCCCNC(=O)c1cccc(S(=O)(=O)N2CC3(C)CC2CC(C)(C)C3)c1 (stereo not shown) | -26.7% |
| CCC1(c2ccc(F)cc2)NC(=O)N(CC(=O)N2c3ccccc3NC(=O)C2(C)C)C1=O (stereo not shown) | -36.4% |
| O=S(=O)(c1ccc2[nH]c3c(c2c1)CCCC3)N1CCCCC1 | 2.21% |
| CCN(CC)C(=O)Cn1c(=O)n(CCC(=O)Nc2ccc(F)cc2)c(=O)c2sccc21 | 14.9% |
| O=C(CSc1nnc(CNC(=O)c2cccs2)o1)Nc1cccc(F)c1 | 4.85% |
| CCc1cccc2c(C#N)cn(CC(=O)N3CCOCC3)c12 | 10.9% |
| Cc1cccc(NC(=S)Nc2ccccn2)c1 | 8.07% |
| CN(CC(=O)Nc1ccccc1Br)CC(=O)Nc1ccccc1C(F)(F)F | -5.45% |
| Cc1ccc(NC(=O)COc2coc(CN3CCc4ccccc43)cc2=O)c(C)c1 | -11.9% |
| O=C(NCCCN1CCCCCC1)c1cc2c(=O)oc3ccccc3c2s1 | -60.5% |
| CCN(CC)S(=O)(=O)c1cccc(-c2nnc(SCC(=O)NC3CCCC3)n2N)c1 | 19% |
| CC1C(=O)N2CCCc3cc(NC(=O)C4CC4)cc1c32 (stereo not shown) | 5.63% |
| CSc1nc2c(c(=O)[nH]1)C(c1cccc(Br)c1)CC(=O)N2 (stereo not shown) | 18.8% |
| Cc1cccc(NC(=S)NCCO)c1C | 19% |
| Cc1cc(C)cc(N(C(C)C(=O)Nc2c(C)n(C)n(-c3ccccc3)c2=O)S(C)(=O)=O)c1 (stereo not shown) | 8.48% |
